Results as given in PMC3750179.
No constants are given. Whether binding was seen depends on the method and setting. Binding seen in cells or lysates may run through a third protein. Some results given as binding are weak or reduced against the parent protein; the word gives no strength. Where a sequence is shown, tags or fusion partners need not be part of it.

Sequences of proteins named here, by UniProt entry; tags and fusion partners are left off.
UniProt Q6WVG3: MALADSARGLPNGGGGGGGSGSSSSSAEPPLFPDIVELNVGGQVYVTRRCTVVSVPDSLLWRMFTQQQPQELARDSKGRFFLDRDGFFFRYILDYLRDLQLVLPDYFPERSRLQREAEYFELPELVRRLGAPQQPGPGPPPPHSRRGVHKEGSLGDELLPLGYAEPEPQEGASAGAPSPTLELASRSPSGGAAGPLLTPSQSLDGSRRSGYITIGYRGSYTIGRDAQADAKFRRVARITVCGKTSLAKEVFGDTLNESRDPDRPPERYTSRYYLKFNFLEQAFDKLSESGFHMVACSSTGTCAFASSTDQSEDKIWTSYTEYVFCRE

How the values were obtained:
HA-GABAB2 = target: T1, HA-GABAB2 (UniProt O88871); assay: pull-down; surface biotinylation of transfected COS-1 cells, 120 min at 37 °C to allow internalization, surface biotin removed with glutathione, biotinylated proteins purified with NeutrAvidin-Sepharose, Western blot; the text calls it co-immunoprecipitation
T1 sequence: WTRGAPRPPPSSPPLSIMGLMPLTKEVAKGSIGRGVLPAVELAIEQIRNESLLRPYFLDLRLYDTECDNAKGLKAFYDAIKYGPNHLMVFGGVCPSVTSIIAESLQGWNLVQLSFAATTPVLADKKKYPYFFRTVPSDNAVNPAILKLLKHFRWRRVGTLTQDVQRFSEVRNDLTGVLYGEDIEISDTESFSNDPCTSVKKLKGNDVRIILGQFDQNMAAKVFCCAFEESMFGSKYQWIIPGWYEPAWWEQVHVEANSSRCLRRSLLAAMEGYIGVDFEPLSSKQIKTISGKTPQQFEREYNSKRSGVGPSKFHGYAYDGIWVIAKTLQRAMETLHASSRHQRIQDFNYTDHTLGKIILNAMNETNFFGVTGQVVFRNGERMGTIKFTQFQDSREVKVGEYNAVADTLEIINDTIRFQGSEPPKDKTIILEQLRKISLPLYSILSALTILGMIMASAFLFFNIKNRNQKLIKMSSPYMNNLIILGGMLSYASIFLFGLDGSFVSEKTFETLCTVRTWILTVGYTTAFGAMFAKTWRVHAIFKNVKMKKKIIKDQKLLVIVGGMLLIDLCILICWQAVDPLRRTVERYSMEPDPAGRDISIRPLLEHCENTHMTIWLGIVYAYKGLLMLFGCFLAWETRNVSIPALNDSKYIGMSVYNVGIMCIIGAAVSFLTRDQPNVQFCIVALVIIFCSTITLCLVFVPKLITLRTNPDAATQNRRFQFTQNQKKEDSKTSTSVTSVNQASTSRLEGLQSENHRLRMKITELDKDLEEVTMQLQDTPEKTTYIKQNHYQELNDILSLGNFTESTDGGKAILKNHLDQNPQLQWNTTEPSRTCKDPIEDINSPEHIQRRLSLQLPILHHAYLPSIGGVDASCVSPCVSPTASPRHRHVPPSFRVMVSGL

HA-GABAB2-YFP1 [1] = target: T2, HA-GABAB2-YFP1 (UniProt O88871); assay: co-IP; co-immunoprecipitation of the YFP-fragment fusions, data not shown
T2 sequence: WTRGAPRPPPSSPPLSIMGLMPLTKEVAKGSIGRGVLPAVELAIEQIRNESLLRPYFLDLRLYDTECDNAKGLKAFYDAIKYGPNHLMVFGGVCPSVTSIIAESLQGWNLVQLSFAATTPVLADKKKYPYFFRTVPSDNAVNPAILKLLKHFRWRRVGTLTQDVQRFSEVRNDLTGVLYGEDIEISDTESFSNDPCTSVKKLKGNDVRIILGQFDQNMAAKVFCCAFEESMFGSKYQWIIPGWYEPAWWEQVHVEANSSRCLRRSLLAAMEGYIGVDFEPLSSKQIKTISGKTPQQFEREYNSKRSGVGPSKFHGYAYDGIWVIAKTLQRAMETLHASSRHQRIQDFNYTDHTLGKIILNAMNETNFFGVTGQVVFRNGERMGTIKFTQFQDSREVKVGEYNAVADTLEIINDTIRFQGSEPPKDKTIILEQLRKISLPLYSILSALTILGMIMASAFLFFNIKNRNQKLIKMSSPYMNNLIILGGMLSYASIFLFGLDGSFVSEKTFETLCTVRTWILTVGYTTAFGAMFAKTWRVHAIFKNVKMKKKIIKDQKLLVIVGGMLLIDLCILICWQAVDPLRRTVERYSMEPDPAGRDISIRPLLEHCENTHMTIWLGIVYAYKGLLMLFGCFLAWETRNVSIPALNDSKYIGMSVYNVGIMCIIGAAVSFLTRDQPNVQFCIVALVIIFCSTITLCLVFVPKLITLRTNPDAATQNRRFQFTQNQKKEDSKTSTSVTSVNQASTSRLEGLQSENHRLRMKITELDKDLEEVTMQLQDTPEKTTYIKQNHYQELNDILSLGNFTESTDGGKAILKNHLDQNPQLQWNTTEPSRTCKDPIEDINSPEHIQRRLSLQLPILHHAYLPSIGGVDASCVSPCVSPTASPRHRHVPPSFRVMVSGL

HA-GABAB2Y902A-YFP1 = target: T3, HA-GABAB2Y902A-YFP1 (UniProt O88871); assay: split reporter; YFP protein fragment complementation (YFP1 and YFP2 at the C termini) in transfected COS-1 cells, confocal microscopy, ER marked with anti-calnexin
T3 sequence: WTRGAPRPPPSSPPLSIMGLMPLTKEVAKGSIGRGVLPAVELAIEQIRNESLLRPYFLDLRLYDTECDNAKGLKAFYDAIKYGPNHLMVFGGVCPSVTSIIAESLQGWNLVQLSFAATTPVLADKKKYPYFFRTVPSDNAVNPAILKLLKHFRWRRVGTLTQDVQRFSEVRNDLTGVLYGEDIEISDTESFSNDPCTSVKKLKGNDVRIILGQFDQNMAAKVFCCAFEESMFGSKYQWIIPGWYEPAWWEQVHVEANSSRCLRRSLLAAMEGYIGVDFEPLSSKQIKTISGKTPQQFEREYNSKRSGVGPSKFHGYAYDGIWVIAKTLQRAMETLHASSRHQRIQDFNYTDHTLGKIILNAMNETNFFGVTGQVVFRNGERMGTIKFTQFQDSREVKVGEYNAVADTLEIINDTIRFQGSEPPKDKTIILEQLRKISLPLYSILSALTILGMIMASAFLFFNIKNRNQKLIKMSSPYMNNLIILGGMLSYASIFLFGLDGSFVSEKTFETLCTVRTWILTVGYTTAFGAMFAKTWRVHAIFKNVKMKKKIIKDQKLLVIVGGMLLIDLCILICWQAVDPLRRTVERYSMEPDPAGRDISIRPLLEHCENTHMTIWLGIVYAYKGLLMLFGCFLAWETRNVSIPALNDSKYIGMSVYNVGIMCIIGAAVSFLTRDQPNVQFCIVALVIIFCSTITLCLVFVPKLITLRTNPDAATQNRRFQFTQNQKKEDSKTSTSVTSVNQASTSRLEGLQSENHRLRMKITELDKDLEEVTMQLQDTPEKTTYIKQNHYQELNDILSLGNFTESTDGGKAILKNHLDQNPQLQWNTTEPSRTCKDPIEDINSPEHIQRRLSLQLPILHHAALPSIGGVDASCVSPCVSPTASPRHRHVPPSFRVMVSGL

HA-GABAB2-YFP1 [2] = target: T2, HA-GABAB2-YFP1; assay: as above
FLAG-KCTD12 = FLAG-KCTD12 (UniProt Q6WVG3); assay: co-IP; COS-1 cells pulse-labelled with [35S]methionine for 15 min; lysate (150 mM NaCl, 10 mM Tris-HCl, 5 mM EDTA, 1.5% Nonidet P-40) precipitated with mouse anti-FLAG and protein A-agarose overnight at 4 °C; autoradiography cross-correlated with Western blots

FLAG-KCTD12 (from UniProt Q6WVG3 1-327)
binding (HA-GABAB2): binds

FLAG-KCTD12-YFP2 (from UniProt Q6WVG3 1-327)
binding (HA-GABAB2-YFP1 [1]): binds | binding (HA-GABAB2Y902A-YFP1): no binding | binding (HA-GABAB2-YFP1 [2]): binds

B1: Myc-GABAB2 (receptor, UniProt O88871 41-940)
chain: WTRGAPRPPPSSPPLSIMGLMPLTKEVAKGSIGRGVLPAVELAIEQIRNESLLRPYFLDLRLYDTECDNAKGLKAFYDAIKYGPNHLMVFGGVCPSVTSIIAESLQGWNLVQLSFAATTPVLADKKKYPYFFRTVPSDNAVNPAILKLLKHFRWRRVGTLTQDVQRFSEVRNDLTGVLYGEDIEISDTESFSNDPCTSVKKLKGNDVRIILGQFDQNMAAKVFCCAFEESMFGSKYQWIIPGWYEPAWWEQVHVEANSSRCLRRSLLAAMEGYIGVDFEPLSSKQIKTISGKTPQQFEREYNSKRSGVGPSKFHGYAYDGIWVIAKTLQRAMETLHASSRHQRIQDFNYTDHTLGKIILNAMNETNFFGVTGQVVFRNGERMGTIKFTQFQDSREVKVGEYNAVADTLEIINDTIRFQGSEPPKDKTIILEQLRKISLPLYSILSALTILGMIMASAFLFFNIKNRNQKLIKMSSPYMNNLIILGGMLSYASIFLFGLDGSFVSEKTFETLCTVRTWILTVGYTTAFGAMFAKTWRVHAIFKNVKMKKKIIKDQKLLVIVGGMLLIDLCILICWQAVDPLRRTVERYSMEPDPAGRDISIRPLLEHCENTHMTIWLGIVYAYKGLLMLFGCFLAWETRNVSIPALNDSKYIGMSVYNVGIMCIIGAAVSFLTRDQPNVQFCIVALVIIFCSTITLCLVFVPKLITLRTNPDAATQNRRFQFTQNQKKEDSKTSTSVTSVNQASTSRLEGLQSENHRLRMKITELDKDLEEVTMQLQDTPEKTTYIKQNHYQELNDILSLGNFTESTDGGKAILKNHLDQNPQLQWNTTEPSRTCKDPIEDINSPEHIQRRLSLQLPILHHAYLPSIGGVDASCVSPCVSPTASPRHRHVPPSFRVMVSGL
binding (FLAG-KCTD12): binds
